Results on 22 molecules are retold here after publication PMC12136788.

This is one part of the list.

The chains are these.
B1: chr6:160170297:160170298:+_ENSG00000146457_ENST00000337387|hu_hu|motif|central (ssRNA)
RNA: GGGAGUUCUACAGUCCGACGAUCCAAAGCUCUUUUAAACAUGUGCCUGUUGAAUGGAACGGGGAUUUCAUAAAAUUCACGGAAAAAAAUAAUGCAGUGAGUCUCAUCACAGCUAAUAUCCUUAUACAAUCUAGUUGUGAAAUGCAACAGAGGAUUGAGCAUCA
B2: chr3:10015032:10015033:+_ENSMUSG00000027533_ENSMUST00000029046|mus_mus|mus_mus_mus_hu_True|18_48 (ssRNA)
RNA: GGGAGUUCUACAGUCCGACGAUCGUUUUUACCAUCACAAGUGAUGAUACAAUCUGGCUUGGCCAUUGCGCCCAUUUUUCGCAAAGCCAGUCCUACUCCUAGCUCCUUCAUGUAUUCCUCAAAGCCGUUGCUGUCCACCAGGCGCAACAGAGGAUUGAGCAUCA
B3: chr3:52741720:52741721:+_ENSG00000114902_ENST00000602728|hu_hu|motif|central (ssRNA)
RNA: GGGAGUUCUACAGUCCGACGAUCAUAGAUGGGCCAUGGAGGAAGUGUCAGCAAACAUGAAAAAGCAAAUCCGGCCAUAACGGUAUAGACAGUCCACCCGAACUGUUCAGCCACGUACCCGUAGAUAAAUCCAACUAUUGCAGACAACAGAGGAUUGAGCAUCA
B4: chr2:125083379:125083380:+_ENSMUSG00000027203_ENSMUST00000082122|mus_hu|FALSE|FALSE (ssRNA)
RNA: GGGAGUUCUACAGUCCGACGAUCUAAAAAAUAUUGCUUAAGAUUUAAAGCAAUUAAAGCAAAAUAAGUUGCUGAAGGGAGAUCAUAUGAGUUAAAUACAGGCUUUUUUUUUUAAUCUGUAAUUGAUUUACAUUUGAUUUUAAGCAACAGAGGAUUGAGCAUCA
B5: chr18:10000604:10000605:-_ENSMUSG00000047879_ENSMUST00000092096|mus_hu|FALSE|FALSE (ssRNA)
RNA: GGGAGUUCUACAGUCCGACGAUCAGACACCAUUUUCUCUUGAAGUUCUGGUGUACACAGUUCAUACAUAUCCAACAUAAGAGGAAAUUUAACAUCCUUAAGAACUUUGGCAUUCACAGAUUCCUUCUCUUUAUAAAAAAAUCGCAACAGAGGAUUGAGCAUCA
B6: chr3:176767854:176767855:-_ENSG00000177565_ENST00000430069|hu_hu|hu_hu_hu_mus_False|58_68 (ssRNA)
RNA: GGGAGUUCUACAGUCCGACGAUCGACAUCCUUGUUACUGGGCACGUCCUGCCCUCCUUCCCGUAUGCAAUGUCUAAGUACUAACUGCGUAGGGCCACUCGUGCUGUUCUCACUGAGGUUCCAGAUUCUUGCCGUGGAGUCUCCCAACAGAGGAUUGAGCAUCA
B7: chr12:39763582:39763583:-_ENSG00000139116_ENST00000544797|hu_mus|hu_hu_hu_mus_False|48_58 (ssRNA)
RNA: GGGAGUUCUACAGUCCGACGAUCCUCUAGGAACUGGGCAUUCACUUUGAAUUCAGGAGGGGGCAGCCCGUUUUUAAUUGCUAUGUGUUUUUUUUCUUCAAUACUCUUGAACAGGUGUCUAACAGCACGAGAGAUGAUGCCCUGCAACAGAGGAUUGAGCAUCA
B8: chr11:77336104:77336105:-_ENSG00000074201_ENST00000525064|hu_mus|hu_hu_hu_mus_False|1_1 (ssRNA)
RNA: GGGAGUUCUACAGUCCGACGAUCCUCACACAUUGCUGUGAACAUCGCCUCCAAUGCUGACUUAUCACUGGGCACAAAUCGAAAUUCAGAAAUGGGUUCAACAUCAUCAUUGUCUUCCUCAUCUUCAUCAGAGAGAGCAGGUUCCAACAGAGGAUUGAGCAUCA
B9: chr2:232320318:232320319:-_ENSG00000115053_ENST00000322723|hu_hu|hu_hu_hu_mus_True|38_48 (ssRNA)
RNA: GGGAGUUCUACAGUCCGACGAUCACUAUUAAAGUCUACAAAACCAAACCCUUUGGAAGAACCAGUUUCCCGAUCAGUGACUAUUCUUGCCCGAACGGAGCCGUCAAAUGAUUCUUUUAAGGUCUCUUCAGUGGUAUCCUCAGACAACAGAGGAUUGAGCAUCA
B10: 36009425_36013022_520_3pUTR_ENSMUSG00000022905_ENSMUST00000004054|mouse|control|control (ssRNA)
RNA: GGGAGUUCUACAGUCCGACGAUCUACUCCUGGUGUGUUGAUGACUUCAUCAAUUGGAGGAUUAGGUUCUUUUGAAAGUAGUUUCCUAAACUUCUGUGUUGCAGAGAGCUGCUGCUCUGGGCUAUUCGAGAAUAUCAUAUCAGUCAACAGAGGAUUGAGCAUCA
B11: chr17:28199517:28199518:+_ENSMUSG00000024219_ENSMUST00000088027|mus_hu|FALSE|FALSE (ssRNA)
RNA: GGGAGUUCUACAGUCCGACGAUCCUCAAAGUGUUUAUAAUUCAGACAAAAUCAGACAGAUUAACAAUUUUAUAUACAGUAAAACAAAAGGGAAAGUCAUUCAAGUAUCAAAAUACAGAGACAAAGAUUAAAUAACAUUUUCAUCAACAGAGGAUUGAGCAUCA
B12: chr11:29999759:29999760:-_ENSMUSG00000020315_ENSMUST00000011877|mus_mus|motif|central (ssRNA)
RNA: GGGAGUUCUACAGUCCGACGAUCAUACACUUAGCAAUGAUUUAAAGGGUUUAUUAUACAUCUAGUUUAUUAUACUUUGUACGGGAAUUAUCUCAAACAUACAAUAUAAUGUAUUUCAGAAAAAAAGAGACUGAAAUUACAGAUCAACAGAGGAUUGAGCAUCA
B13: chr2:47387792:47387793:-_ENSG00000143933_ENST00000272298|hu_hu|hu_hu_hu_mus_True|38_38 (ssRNA)
RNA: GGGAGUUCUACAGUCCGACGAUCUAAGGACAAUGACAGUAAGAUAAGGGAAGAAAACAUGGAGGAAUGAAGUCCUAAUUACUAUACAUGCAUAUUUUUUUGACAGUGGGGGGGGGAACCUUUUACAGAUAAGUUACAAACAAACAACAGAGGAUUGAGCAUCA
B14: chr7:75932113:75932114:+_ENSG00000106211_ENST00000248553|hu_hu|hu_hu_hu_mus_False|8_8 (ssRNA)
RNA: GGGAGUUCUACAGUCCGACGAUCCUGCGACCACUCAUCGGGCAACCGGGGCACCCCGAAAGCUUGAUCGAAGAGGCGGCUGUGUGCAGGGUACCAGUCCCGGAAUGGUUCCCAGCUCGGGCUCCGCAGCGAGAAGGAGGGCACCAACAGAGGAUUGAGCAUCA
B15: 74934108_74934228_2618_3pUTR_ENSG00000253719_ENST00000519948|human|control|control (ssRNA)
RNA: GGGAGUUCUACAGUCCGACGAUCAAUCAGUCUAUACAGUCUAAAUAGUACCUUCUGGGAUAAGGAUUGAUACAUGCACAGCAAGGGUGAGAGAAUGGACAAGGACCAACUCCAUCCCCCUGUGUGUCAAUCAGCCUUUACUGCCAACAGAGGAUUGAGCAUCA
B16: chr4:76721835:76721836:+_ENSG00000138768_ENST00000264904|hu_hu|FALSE|FALSE (ssRNA)
RNA: GGGAGUUCUACAGUCCGACGAUCUUUGGCUGGGGUUUCUGAGAUGCUCUGGAAUACAACUCAUGUUUGCUAAUAAAUCCUAGUUUCUCUAUGAAAUUCUCUUUGCCAAUCCUCUUCUCAAUCAGUUGUUUUAGCUUCUCUUUCCAACAGAGGAUUGAGCAUCA
B17: chr12:49580477:49580478:-_ENSG00000167552_ENST00000550767|hu_hu|FALSE|FALSE (ssRNA)
RNA: GGGAGUUCUACAGUCCGACGAUCCACUGCCCGGGGCACAUGCUUGCCAGCCCCCGUCUCACUGAAGAAGGUGUUGAAGGAAUCAUCUCCUCCCCCAAUGGUCUUGUCACUUGGCAUCUGGCCAUCGGGCUGGAUGCCGUGUUCCAACAGAGGAUUGAGCAUCA
B18: chr5:128448638:128448639:+_ENSG00000066583_ENST00000173527|hu_mus|hu_hu_hu_mus_False|18_68 (ssRNA)
RNA: GGGAGUUCUACAGUCCGACGAUCGGCACUCGCCUUAAUUAGGUUCUGAAUUUCCUUGAACUUCGGGUGGUCCUUAUCAGCCACCAGCUGUAGGAGGACAGCCUCACUAGUGGUCACUAUGAUCCCGGUGCGGGCAAGACGCUCCAACAGAGGAUUGAGCAUCA
B19: chr11:12883819:12883820:+_ENSG00000187079_ENST00000361905|hu_hu|FALSE|FALSE (ssRNA)
RNA: GGGAGUUCUACAGUCCGACGAUCAAUGUGACUAGACACCUGUUUUCUGGUCCUCGUCUUGCCUGUCCUGAGUUUGAUGUAUCUGGCUAUCAAUUCAUUCCUACCAUACAUUUUGCCUUCGUCUGAUAAGAUGAUUUUCCUCCUCAACAGAGGAUUGAGCAUCA
B20: 38560734_38562653_2154_CDS_ENSG00000131747_ENST00000423485|human|control|control (ssRNA)
RNA: GGGAGUUCUACAGUCCGACGAUCCAAGUAAUCCUCAGGAAGCCCAAGUAACUUUCGUUGUCUUCUAUCCUCCAUGAAAUUAGUUAACCAUUCCUUUCGAUCAUCUAUCUGUUUUUUGCUAAAGGCCAGGCUGAUAGCAGCAUCCAACAGAGGAUUGAGCAUCA
B21: chr2:216981417:216981418:+_ENSG00000079246_ENST00000392132|hu_hu|hu_hu_hu_mus_True|38_48 (ssRNA)
RNA: GGGAGUUCUACAGUCCGACGAUCCUGAUACUGGUCCUUGCCAGCAAGGGCAUUAUCAGUGCCAUCUGUGCCAUAGAGGACUAACGCAAUCUCAUCCUUGUUCUCAGAAAAUACCUGUCGUUGGACAAACAUAGUCAUCACUUUCAACAGAGGAUUGAGCAUCA
B22: chr7:54825262:54825263:-_ENSG00000132432_ENST00000352861|hu_hu|hu_hu_hu_mus_False|8_68 (ssRNA)
RNA: GGGAGUUCUACAGUCCGACGAUCCUGCCGGCUGGGCUCCACAAACUGCAUUACCUGAUCCAUGUUUUACCCAACCGGGAUUGAGAGCGUAGAGACACGUAGCUCAGGAGAGAACCGAGCCCAACGGCACCGGAACCUGGCAACCAACAGAGGAUUGAGCAUCA

The target of this assay is T1, UNK ZnF1-3 (human, UniProt Q9C0B0 31-174).
T1 sequence: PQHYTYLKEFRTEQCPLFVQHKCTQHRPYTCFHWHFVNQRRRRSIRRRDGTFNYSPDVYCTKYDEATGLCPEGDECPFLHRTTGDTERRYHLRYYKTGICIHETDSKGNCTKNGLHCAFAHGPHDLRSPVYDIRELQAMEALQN
Kind of assay: nsRBNS (natural sequence RNA bind-n-seq); RBNS binding buffer (assumed for nsRBNS): 25 mM Tris pH 7.5, 150 mM KCl, 3 mM MgCl2, 0.01% Triton X-100, 500 ug/ml BSA, 20 U/ml SUPERase-In, 4 C; UNK is unkempt and MSI1 is Musashi-1; names of the RNAs are library labels; protein concentration not given here; high values mean tight binding.
In turn, B1 displayed a binding signal of 0.679 enrichment R.

B2 had a binding signal of 0.6 enrichment R.

The molecule B3 came in with a binding signal of 1.56 enrichment R.

B4 came in with a binding signal of 1.49 enrichment R.

Consider B5, for which the binding signal amounted to 0.96 enrichment R.

In turn, B6 came in with a binding signal of 0.653 enrichment R.

For B7, the binding signal was determined as 1.5 enrichment R.

Molecule B8 yielded a binding signal of 1.05 enrichment R.

Regarding B9, the binding signal was 0.718 enrichment R.

Molecule B10 returned a binding signal of 0.553 enrichment R.

The molecule B11 showed a binding signal of 1.84 enrichment R.

In turn, B12 returned a binding signal of 0.784 enrichment R.

The molecule B13 came in with a binding signal of 1.92 enrichment R.

B14 returned a binding signal of 1.42 enrichment R.

B15: the binding signal amounted to 0.856 enrichment R.

In the case of B16, the binding signal stood at 0.43 enrichment R.

In turn, B17 yielded a binding signal of 0.659 enrichment R.

The molecule B18 returned a binding signal of 0.507 enrichment R.

As for B19, the binding signal was 0.39 enrichment R.

The molecule B20 gave a binding signal of 0.895 enrichment R.

The molecule B21 registered a binding signal of 0.626 enrichment R.

In turn, B22 registered a binding signal of 0.722 enrichment R.
